This note sets out measurements from the supplement of paper PMC4604168 (melanoma cell lines).

Some of the results follow. Many values rest on one well or one pass, so single values are uncertain.
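Also: cells treated in 1,536-well plates, then fixed and DAPI-stained, with nuclei counted from automated high-throughput microscope images.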

The experiment relates to WM3526. Briefly: cell count relative to DMSO control; melanoma cells; higher = more viable cells. The following applies: library dose: standard library concentration; 72 h.
Regarding `N#CC[C@H](C1CCCC1)n1cc(-c2ncnc3[nH]ccc23)cn1` [ruxolitinib] + O=c1[nH]nc(Sc2ncc([N+](=O)[O-])s2)n1-c1ccc2c(c1)OCCO2 [BI78D3] (first compound 5 µM, partner dose 1 µM), the cell count is 97.4%.

As for `N#CC[C@H](C1CCCC1)n1cc(-c2ncnc3[nH]ccc23)cn1` [ruxolitinib] + OCCn1cc(-c2cnc3nnn(Cc4ccc5ncccc5c4)c3n2)cn1 [PF04217903] (first compound 5 µM, partner dose 5 µM), the cell count was found to be 117%.

`CC[C@]1(O)C[C@H]2CN(CCc3c([nH]c4ccccc34)[C@@](C(=O)OC)(c3cc4c(cc3OC)N(C=O)[C@H]3[C@@](O)(C(=O)OC)[C@H](OC(C)=O)[C@]5(CC)C=CCN6CC[C@]43[C@@H]65)C2)C1` [vincristine] + O=C(CCCCCCC(=O)Nc1ccccc1)NO [vorinostat] (first compound 0.0005 µM, partner dose 0.4 µM) yielded a cell count of 53.2%.

For `N#CC[C@H](C1CCCC1)n1cc(-c2ncnc3[nH]ccc23)cn1` [ruxolitinib] + O=C1NC(=O)/C(=C/c2ccc(-c3ccc(F)cc3O)o2)S1 [AS252424] (first compound 5 µM, partner dose 5 µM), the cell count came to 100%.

The compound `CC[C@]1(O)C[C@H]2CN(CCc3c([nH]c4ccccc34)[C@@](C(=O)OC)(c3cc4c(cc3OC)N(C=O)[C@H]3[C@@](O)(C(=O)OC)[C@H](OC(C)=O)[C@]5(CC)C=CCN6CC[C@]43[C@@H]65)C2)C1` [vincristine] + O=C1NC(=O)/C(=C/c2ccc(-c3ccc(F)cc3O)o2)S1 [AS252424] (first compound 0.0005 µM, partner dose 5 µM) showed a cell count of 56.8%.

As to `Cc1cc(Nc2cc(N3CCN(C)CC3)nc(Sc3ccc(NC(=O)C4CC4)cc3)n2)n[nH]1` [Tozasertib] + NCC(=O)Nc1ccc(-n2nc(C(F)(F)F)cc2-c2ccc3c(ccc4ccccc43)c2)cc1 [OSU03012] (first compound 0.03 µM, partner dose 5 µM), the cell count is 46.8%.

As for `Cc1cc(Nc2cc(N3CCN(C)CC3)nc(Sc3ccc(NC(=O)C4CC4)cc3)n2)n[nH]1` [Tozasertib] + Cc1cc([N+](=O)[O-])ccc1NS(=O)(=O)c1cc(Cl)ccc1Cl [FH535] (first compound 0.03 µM, partner dose 5 µM), the cell count stood at 81.9%.

As to `N#CC[C@H](C1CCCC1)n1cc(-c2ncnc3[nH]ccc23)cn1` [ruxolitinib] + CCN(CC)CCCCNc1ncc2cc(-c3cc(OC)cc(OC)c3)c(NC(=O)NC(C)(C)C)nc2n1 [PD173074] (first compound 5 µM, partner dose 0.5 µM), the cell count was determined as 119%.

With `CC[C@]1(O)C[C@H]2CN(CCc3c([nH]c4ccccc34)[C@@](C(=O)OC)(c3cc4c(cc3OC)N(C=O)[C@H]3[C@@](O)(C(=O)OC)[C@H](OC(C)=O)[C@]5(CC)C=CCN6CC[C@]43[C@@H]65)C2)C1` [vincristine] + NCC(=O)Nc1ccc(-n2nc(C(F)(F)F)cc2-c2ccc3c(ccc4ccccc43)c2)cc1 [OSU03012] (first compound 0.0005 µM, partner dose 5 µM), the cell count is 48.3%.

For the compound `N#CC[C@H](C1CCCC1)n1cc(-c2ncnc3[nH]ccc23)cn1` [ruxolitinib] + Cc1nc(Nc2ncc(C(=O)Nc3c(C)cccc3Cl)s2)cc(N2CCN(CCO)CC2)n1 [dasatanib] (first compound 5 µM, partner dose 0.02 µM), the cell count was 82.1%.

The compound `CC[C@]1(O)C[C@H]2CN(CCc3c([nH]c4ccccc34)[C@@](C(=O)OC)(c3cc4c(cc3OC)N(C=O)[C@H]3[C@@](O)(C(=O)OC)[C@H](OC(C)=O)[C@]5(CC)C=CCN6CC[C@]43[C@@H]65)C2)C1` [vincristine] + O=C(O)c1ccc(-c2c[nH]c3ncc(-c4ccccc4)cc23)cc1C1CCCC1 [GSK650394] (first compound 0.0005 µM, partner dose 0.8 µM) came in with a cell count of 71.1%.
